Source: the RNAGym collection of RNA variant scans (doi:10.1073/pnas.2313332121)
Variants at the floor of the assay are shown more often than the library holds them.

B1: TPR 5TU (parent)
chain: GGAUCUUCUCGAUCUAACAAAAAAGACAAAUCUGCCACAAAGCUUGAGAGCAUCUUCGGAUGCAGAGGCGGCAGCCUUCGGUGGCGCGAUAGCGCCAACGUUCUCAACUAUGACACGCAAAACGCGUGCUCCGUUGAAUGGAGUUUAUCAUG

Variants of: B1
Experiment: polymerase ribozyme fitness, log enrichment relative to wild type (log ratio); higher = more active; in vitro selection for triplet polymerase activity
Summary of the method: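 Libraries of mutants in each subunit of a heterodimeric triplet polymerase ribozyme were generated by PCR and transcribed. In triplicate, each went through one in vitro selection round: annealing with biotinylated primer, partner subunit and triplets; frozen incubation at −7 °C; gel excision of extended constructs; streptavidin-bead capture; RT-PCR. Fitness, taken from Illumina sequencing of input and output libraries, is the logarithm of a genotype's enrichment over wild-type enrichment, averaged across replicates with inverse-variance weights. The logarithm is base 2, and genotypes needed ≥10 input reads and ≥1 read per output to be kept.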

Polymerase ribozyme fitness (log ratio), -1.92:
GGAUCUUCUCGAUCUAACAAAGAAGACAAAUCUGCCACAAAGCUUGAGAGCACUUUCGGAUGCAGAGGCGGCAGCCUCCGGUGGCGCGAUAGCGCCAACGUUCUCAACUAUGACACACAAAACGCGUGCUCCGUUGAAUGGAGUUUAUCAUG [A22G U53C C54U U78C G117A]

Polymerase ribozyme fitness (log ratio), ≤ -4.2:
GGAUCUUCUCGAUCUAACAAAGAAGACAAAUCUGCCACAAAGCUAGAGAGCAUCUUCGGAUGCAGAGGCGGCAGCCUUCGGUGGCGCGAUUGCGCCAACGUUCUAAAGUAUGACACGCAAAACGCGUGCUCCGUUGAAUGGAGUUUAUCAUG [A22G U45A A91U C105A C108G]
GGAUCUUCUCGAUCUAACAAAGAAGACAAAUCUGCCACAAAGCUUGAGAGCAUCUGCGGAUGCCGAGGCGGCAGCCUUCGGUGGCGCGAUAGCGCCAACGUUCUCAACGAUGACAGGCAAAACGCGUGCUCCGUUGAAUGGAGGUUAUCAUG [A22G U56G A64C U109G C116G U144G]
GGAUCUUCUCGAUCUAACAAAGAAGACAAAUCUGCCACAAAGCUUGAGAGCAUCUUCGGAGGCAGAGGCGGCAGCCUUCGGUGGCGCGAUAGCGCCAACGUUGUCAACUAUGACACGCAAAACGCGUGCUCCGUUGAAUGGAGUUUAUCAUG [A22G U61G C103G]
GGAUCUUCUCGAUCUAACAAAUCAGACAGAUCUGCCACAAAUGUUGAGAGCAUCUUCUGAUGCAGAGGCGGCAGCCUUCGGUGGCGCGAUAGCGCCAAUGGUCUCAACUUUGACACGCAAAACGCGUGCUCCGUUGAAUGGAGUUUAUCAUG [A22U A23C A29G G42U C43G G58U C99U U101G A110U]
GGAUCUUCUCGAUCUAACAAAUCAAACAAAUCUGCCACAAAUCUUGAGAGCAUCAUCGGAUGCAGAGGCGGCAGCCUUCGGUGGCGCUAUAGCGCCAUCGUUCUCAACUAUGACACGCGAAACGCGUGCUCCGUUGAAUGGAAUUUAUCAUG [A22U A23C G25A G42U U55A G88U A98U A119G G143A]
GGAUCUUCUCGAUCUAACAAAUUAGACAAAUCUGCCACAAAGCUUGAGAGCAUCUUCGGAUGCAGAGUCGGCAGUUUUCGGUGGCGCGAUAUCGCCAACGUUCUCAACUAUGACACGCAAAACGCGUGCUCCGUUGAAUGGAGUUUAUCAUG [A22U A23U G68U C75U C76U G92U]
GGAUCUUCUCGAUCUAACAAAUACGACAAAUCUGCCACAAAGCAGGAGAGCAUCUUCGUAUGCAGAGGCGGCAGCCUUCGGUGGCGCGGUAGCGCCAACGUUCUCAACUAUGACACGCAUAACGCGCGCUCCGUUGAAUGGAGUUUAUCAUG [A22U A24C U44A U45G G59U A89G A120U U127C]
GGAUCUUCUCGAUCUAACAAAUAGGACAAAUCUGCCACAAAGUUUGAGAGCAUCUUCGGAUGCAGAGGCGGCAGCCUUCGGUGGCGCGAUAGCGUCAACGUUCUCAACUAUGACACGCAAAACGCGUGCUCCGUUGAAUGGAGUUUAUCAUG [A22U A24G C43U C95U]
GGAUCUUCUCGAUCUAACAAAUAUGACAAAUCUGCCACAAAGCUUGAGAGCAUCUUCGGAUGCAGAGGCGGCAGCCUUCGGUGGCGCGAUAGUGCCAACGUUCUCAACUAUGACACGCAAAACCCGUGCUCCAUUGAAUGGAGUUUAUCAUG [A22U A24U C93U G124C G133A]
GGAUCUUCUCGAUCUAACAAAUAUGACAAAUCUGCCACAAAGCAUGAGAGCAUCUUCGGAUGCAGAGGCGGCAGCCUUCGGUGGCGCGAUAGAGCUAACGUUCUCAACUAUGACACGUAAAACGCGUGCUCCGUUGAAUGGAGUUUAUCAUG [A22U A24U U44A C93A C96U C118U]
GGAUCUUCUCGAUCUAACAAAUAAGCCAAAUCUGCCACAAUGCUUGAGAGCAUCUUCGGAUGCAGAGGCGGCAGCCUUCGGUGGCGCGAUAGCGCCAACGUUUUCAACUAUGACACGAAAAACGCGUGCUCCGUUGAAUGGAGUUUAUCAUG [A22U A26C A41U C103U C118A]
GGAUCUUCUCGAUCUAACAAAUAAGCCAAAUCUGCCACAAAGCUUGCGAGCAUCUUAGGAUACAGAGGCGGCAGCCUUCGGUGGCACGUUAGCGCCAACGUUCUCUAGUAUGACACGCAAAACGCGUGCUCCGUUGAAUGGAGUUUAUCAUG [A22U A26C A47C C57A G62A G86A A89U A106U C108G]
GGAUCUUCUCGAUCUAACAAAUAAGCCAAAUCUGCCACAAAGCUUGAGAGCAUCUUCGGAUGCAGAGGCGGCAGCCUUCGGUGGCGUGAGAGCGCAAACGUUCUCAACUAUGACACGCAAAACGCGUGCUCCGUUGAAUGGAGUUUAUCACG [A22U A26C C87U U90G C96A U151C]
GGAUCUUCUCGAUCUAACAAAUAAGACCAAUCUGCCACAAAGCUUGAGAGCAUCUUCGGAUGCAGAGGCGGCAGCCUGCGGUGGCGCGAUAUCGCCAACGUUCUCAACUAUGACACGCAAAACGCGUGCUCCGUUGAAUGGAGUUUAUCAUG [A22U A28C U78G G92U]
GGAUCUUCUCGAUCUAACAAAUAAGACUAAUCUGCCACAAAGCUUGAGAGCAUCUUCGGAUGCAGAUACGGCAGCCUUCGGUGACGCGAUAGCGCCAACGUUCUCAACUAUGACACGCAAAACGCGUACUCCGUUGAAUGGAGUUUAUCAUG [A22U A28U G67U G68A G84A G128A]
GGAUCUUCUCGAUCUAACAAAUAAGACUAAUCGGCCACAAAGCUUGAGAGCAUCUUGGGAUGCAGAGGCGGCAGCCUUCGGUGGCACGAUAGCGCCAACGUUCUCAACUAUGACACGCAAAACGCGUGCUCCGUUGUAUGGAGUUUAUCCUG [A22U A28U U33G C57G G86A A137U A150C]

Polymerase ribozyme fitness (log ratio), 0.397:
GGAUCUUCUCGAUCUAACAAAGAAGACAAAUCUGCCACAAAGCUUGAGAGCACCUUCGGAUGCAGAGGCGGCAGCCUUCGGGGGCGCGAUAGCGCCAUCGUUCUCAACUAUGACACGCAAAACGCGUGCUCCGUUGAAUGGAGUUUAUCAUG [A22G U53C U82G A98U]

Polymerase ribozyme fitness (log ratio), -4:
GGAUCUUCUCGAUCUAACAAAUCAGACAAAUCUGCCACAAAGCUUGAGAGCAUCUUCGGAUGCAGAGGCGGCAGCCUUCGGUGGCGCGAUAGCGCCAACGUUCUCAACUAUGACACGCAAAACGCGUGCUCCGUUGAAUGGAGUUUAUCAUG [A22U A23C]
